Reference: publication PMC7663100 (2020)

How the values were obtained:
[1] = molecular target: T1, MINERVA^FL (full length human MINERVA, residues Met1–Phe746), recombinant with N-terminal His6-tag (human, UniProt Q96TA1 1-746); test: SPR
T1 chain: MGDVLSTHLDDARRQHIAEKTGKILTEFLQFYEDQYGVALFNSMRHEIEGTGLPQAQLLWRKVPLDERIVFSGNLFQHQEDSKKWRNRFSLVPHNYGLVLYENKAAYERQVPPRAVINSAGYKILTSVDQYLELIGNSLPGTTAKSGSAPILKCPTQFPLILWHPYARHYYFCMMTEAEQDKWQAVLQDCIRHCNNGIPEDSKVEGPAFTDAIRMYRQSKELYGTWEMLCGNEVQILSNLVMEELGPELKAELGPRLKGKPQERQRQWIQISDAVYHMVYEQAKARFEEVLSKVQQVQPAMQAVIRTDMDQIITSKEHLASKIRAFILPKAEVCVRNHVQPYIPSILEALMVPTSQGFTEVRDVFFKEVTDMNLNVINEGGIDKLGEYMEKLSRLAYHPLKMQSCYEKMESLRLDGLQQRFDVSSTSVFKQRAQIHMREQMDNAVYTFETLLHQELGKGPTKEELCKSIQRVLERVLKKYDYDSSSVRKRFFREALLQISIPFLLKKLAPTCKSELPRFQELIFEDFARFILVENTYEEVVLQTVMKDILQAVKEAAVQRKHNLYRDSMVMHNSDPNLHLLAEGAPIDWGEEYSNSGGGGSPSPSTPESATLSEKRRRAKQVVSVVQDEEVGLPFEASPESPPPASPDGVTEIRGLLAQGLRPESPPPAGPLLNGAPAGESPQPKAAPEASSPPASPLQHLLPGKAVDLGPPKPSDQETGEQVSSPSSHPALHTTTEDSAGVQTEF

[2] = molecular target: T1, MINERVA^FL (full length human MINERVA, …); test: SPR

B1: Keap1^[…] (N- and C-terminally truncated Keap1, […], containing the Kelch domain) (domain or fragment)
chain: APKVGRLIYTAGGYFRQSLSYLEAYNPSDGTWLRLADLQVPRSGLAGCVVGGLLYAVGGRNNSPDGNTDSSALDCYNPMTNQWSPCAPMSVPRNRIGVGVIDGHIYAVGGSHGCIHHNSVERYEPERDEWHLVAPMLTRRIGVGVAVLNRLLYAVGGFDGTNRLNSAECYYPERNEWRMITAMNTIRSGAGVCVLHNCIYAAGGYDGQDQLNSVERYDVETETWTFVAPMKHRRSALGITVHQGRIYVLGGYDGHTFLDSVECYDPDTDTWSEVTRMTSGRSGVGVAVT
Q: What does the source list for B1?
A: Kd [1]: 1770 nM; koff [2]: 0.478 s⁻¹
